Test results taken from publication PMC11831438.
No constants are given. Whether binding was seen depends on the method and setting. Binding seen in cells or lysates may run through a third protein. Some entries that bind do so weakly or less than the wild type. Where a sequence is shown, tags or fusion partners need not be part of it.

Columns and labels:
[1] = target: T1, Myc‐SENP6 (Sentrin/SUMO‐specific protease 6) (UniProt Q9GZR1); experiment: co-IP; HEK293T cells (HEK293 as printed for Figure S2C) co-transfected with the tagged constructs for 48 h, in some samples with His-SUMO2 and Flag-Ubc9; lysis in IP buffer at 4 °C, primary antibody overnight, protein A/G agarose 4 h, immunoblot
T1 sequence: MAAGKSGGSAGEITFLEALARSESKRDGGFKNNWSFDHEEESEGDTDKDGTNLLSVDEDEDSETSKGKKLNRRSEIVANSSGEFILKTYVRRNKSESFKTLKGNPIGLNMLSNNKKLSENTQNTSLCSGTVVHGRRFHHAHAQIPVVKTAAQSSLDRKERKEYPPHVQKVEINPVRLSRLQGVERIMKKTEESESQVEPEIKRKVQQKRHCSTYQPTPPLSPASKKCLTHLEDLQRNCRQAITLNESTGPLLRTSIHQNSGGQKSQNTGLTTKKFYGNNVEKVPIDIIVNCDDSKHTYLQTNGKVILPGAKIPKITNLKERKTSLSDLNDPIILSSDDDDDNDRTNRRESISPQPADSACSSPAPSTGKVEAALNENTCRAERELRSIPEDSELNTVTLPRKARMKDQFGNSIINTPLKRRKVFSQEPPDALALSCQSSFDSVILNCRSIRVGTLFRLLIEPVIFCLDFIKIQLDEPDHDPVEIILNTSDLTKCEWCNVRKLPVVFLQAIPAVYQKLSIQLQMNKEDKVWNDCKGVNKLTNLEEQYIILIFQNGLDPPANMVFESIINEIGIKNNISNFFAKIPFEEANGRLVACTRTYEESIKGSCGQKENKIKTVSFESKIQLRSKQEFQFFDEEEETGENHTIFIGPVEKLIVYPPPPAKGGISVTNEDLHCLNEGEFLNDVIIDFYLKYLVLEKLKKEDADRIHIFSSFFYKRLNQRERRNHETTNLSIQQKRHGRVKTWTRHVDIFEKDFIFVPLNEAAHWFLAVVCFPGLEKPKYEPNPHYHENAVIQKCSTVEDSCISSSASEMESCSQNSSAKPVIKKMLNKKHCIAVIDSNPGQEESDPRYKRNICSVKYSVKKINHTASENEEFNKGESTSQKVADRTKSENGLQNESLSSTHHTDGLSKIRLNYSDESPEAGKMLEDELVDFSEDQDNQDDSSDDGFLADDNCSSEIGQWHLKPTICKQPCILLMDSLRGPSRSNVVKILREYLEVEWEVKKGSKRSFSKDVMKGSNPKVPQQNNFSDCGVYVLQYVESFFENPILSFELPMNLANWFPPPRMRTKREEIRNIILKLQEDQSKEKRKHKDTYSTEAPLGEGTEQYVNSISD

[2] = target: GFP‐Cul3 (Cullin 3) (UniProt Q13618); experiment: as above
[3] = target: T1, Myc‐SENP6 (Sentrin/SUMO‐specific protease 6); experiment: co-IP; HEK293T cells co-transfected with Myc-SENP6 and HA-Nrf2 for 48 h, then treated with Tat-Nrf2 peptide at 5, 10, 15 and 20 µM; the blocked pair
[4] = target: T2, HA‐Nrf2‐WT (nuclear factor erythroid 2‐related factor 2) (human) (UniProt Q16236); experiment: co-IP; HEK293T cells (HEK293 as printed for Figure S2C) co-transfected with the tagged constructs for 48 h, in some samples with His-SUMO2 and Flag-Ubc9; lysis in IP buffer at 4 °C, primary antibody overnight, protein A/G agarose 4 h, immunoblot
T2 sequence: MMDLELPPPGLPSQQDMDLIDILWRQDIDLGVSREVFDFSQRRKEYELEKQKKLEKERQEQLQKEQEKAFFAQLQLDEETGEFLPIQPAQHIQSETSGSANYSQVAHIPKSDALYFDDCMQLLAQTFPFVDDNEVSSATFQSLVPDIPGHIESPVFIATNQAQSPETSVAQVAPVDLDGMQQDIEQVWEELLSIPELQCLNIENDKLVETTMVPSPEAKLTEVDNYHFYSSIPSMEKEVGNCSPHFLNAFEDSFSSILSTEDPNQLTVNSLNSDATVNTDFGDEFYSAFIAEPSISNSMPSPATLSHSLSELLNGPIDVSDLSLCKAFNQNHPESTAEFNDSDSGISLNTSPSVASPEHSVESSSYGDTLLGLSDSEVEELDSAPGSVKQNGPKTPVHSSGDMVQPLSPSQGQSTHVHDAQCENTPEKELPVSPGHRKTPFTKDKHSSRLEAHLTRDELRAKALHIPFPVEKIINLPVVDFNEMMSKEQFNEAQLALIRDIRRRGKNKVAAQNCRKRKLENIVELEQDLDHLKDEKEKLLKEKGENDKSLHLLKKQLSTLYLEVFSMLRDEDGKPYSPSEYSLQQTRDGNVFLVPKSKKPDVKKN

B1: HA‐Nrf2‐WT (nuclear factor erythroid 2‐related factor 2) (protein, UniProt Q16236 1-605)
chain: MMDLELPPPGLPSQQDMDLIDILWRQDIDLGVSREVFDFSQRRKEYELEKQKKLEKERQEQLQKEQEKAFFAQLQLDEETGEFLPIQPAQHIQSETSGSANYSQVAHIPKSDALYFDDCMQLLAQTFPFVDDNEVSSATFQSLVPDIPGHIESPVFIATNQAQSPETSVAQVAPVDLDGMQQDIEQVWEELLSIPELQCLNIENDKLVETTMVPSPEAKLTEVDNYHFYSSIPSMEKEVGNCSPHFLNAFEDSFSSILSTEDPNQLTVNSLNSDATVNTDFGDEFYSAFIAEPSISNSMPSPATLSHSLSELLNGPIDVSDLSLCKAFNQNHPESTAEFNDSDSGISLNTSPSVASPEHSVESSSYGDTLLGLSDSEVEELDSAPGSVKQNGPKTPVHSSGDMVQPLSPSQGQSTHVHDAQCENTPEKELPVSPGHRKTPFTKDKHSSRLEAHLTRDELRAKALHIPFPVEKIINLPVVDFNEMMSKEQFNEAQLALIRDIRRRGKNKVAAQNCRKRKLENIVELEQDLDHLKDEKEKLLKEKGENDKSLHLLKKQLSTLYLEVFSMLRDEDGKPYSPSEYSLQQTRDGNVFLVPKSKKPDVKKN
For B1, the binding [1] was “binds”, the binding [2] was “binds” and the binding [3] was “binds”.

B2: Myc‐SENP6 (Sentrin/SUMO‐specific protease 6) (enzyme, UniProt Q9GZR1 1-1112)
chain: MAAGKSGGSAGEITFLEALARSESKRDGGFKNNWSFDHEEESEGDTDKDGTNLLSVDEDEDSETSKGKKLNRRSEIVANSSGEFILKTYVRRNKSESFKTLKGNPIGLNMLSNNKKLSENTQNTSLCSGTVVHGRRFHHAHAQIPVVKTAAQSSLDRKERKEYPPHVQKVEINPVRLSRLQGVERIMKKTEESESQVEPEIKRKVQQKRHCSTYQPTPPLSPASKKCLTHLEDLQRNCRQAITLNESTGPLLRTSIHQNSGGQKSQNTGLTTKKFYGNNVEKVPIDIIVNCDDSKHTYLQTNGKVILPGAKIPKITNLKERKTSLSDLNDPIILSSDDDDDNDRTNRRESISPQPADSACSSPAPSTGKVEAALNENTCRAERELRSIPEDSELNTVTLPRKARMKDQFGNSIINTPLKRRKVFSQEPPDALALSCQSSFDSVILNCRSIRVGTLFRLLIEPVIFCLDFIKIQLDEPDHDPVEIILNTSDLTKCEWCNVRKLPVVFLQAIPAVYQKLSIQLQMNKEDKVWNDCKGVNKLTNLEEQYIILIFQNGLDPPANMVFESIINEIGIKNNISNFFAKIPFEEANGRLVACTRTYEESIKGSCGQKENKIKTVSFESKIQLRSKQEFQFFDEEEETGENHTIFIGPVEKLIVYPPPPAKGGISVTNEDLHCLNEGEFLNDVIIDFYLKYLVLEKLKKEDADRIHIFSSFFYKRLNQRERRNHETTNLSIQQKRHGRVKTWTRHVDIFEKDFIFVPLNEAAHWFLAVVCFPGLEKPKYEPNPHYHENAVIQKCSTVEDSCISSSASEMESCSQNSSAKPVIKKMLNKKHCIAVIDSNPGQEESDPRYKRNICSVKYSVKKINHTASENEEFNKGESTSQKVADRTKSENGLQNESLSSTHHTDGLSKIRLNYSDESPEAGKMLEDELVDFSEDQDNQDDSSDDGFLADDNCSSEIGQWHLKPTICKQPCILLMDSLRGPSRSNVVKILREYLEVEWEVKKGSKRSFSKDVMKGSNPKVPQQNNFSDCGVYVLQYVESFFENPILSFELPMNLANWFPPPRMRTKREEIRNIILKLQEDQSKEKRKHKDTYSTEAPLGEGTEQYVNSISD
B2 was tested, and the binding [4] was “binds”.

B3: HA‐Nrf2‐K110R (protein, UniProt Q16236 1-605)
chain: MMDLELPPPGLPSQQDMDLIDILWRQDIDLGVSREVFDFSQRRKEYELEKQKKLEKERQEQLQKEQEKAFFAQLQLDEETGEFLPIQPAQHIQSETSGSANYSQVAHIPRSDALYFDDCMQLLAQTFPFVDDNEVSSATFQSLVPDIPGHIESPVFIATNQAQSPETSVAQVAPVDLDGMQQDIEQVWEELLSIPELQCLNIENDKLVETTMVPSPEAKLTEVDNYHFYSSIPSMEKEVGNCSPHFLNAFEDSFSSILSTEDPNQLTVNSLNSDATVNTDFGDEFYSAFIAEPSISNSMPSPATLSHSLSELLNGPIDVSDLSLCKAFNQNHPESTAEFNDSDSGISLNTSPSVASPEHSVESSSYGDTLLGLSDSEVEELDSAPGSVKQNGPKTPVHSSGDMVQPLSPSQGQSTHVHDAQCENTPEKELPVSPGHRKTPFTKDKHSSRLEAHLTRDELRAKALHIPFPVEKIINLPVVDFNEMMSKEQFNEAQLALIRDIRRRGKNKVAAQNCRKRKLENIVELEQDLDHLKDEKEKLLKEKGENDKSLHLLKKQLSTLYLEVFSMLRDEDGKPYSPSEYSLQQTRDGNVFLVPKSKKPDVKKN
B3 was tested, and the binding [1] was “binds”.

B4: HA‐Nrf2‐K533R (protein, UniProt Q16236 1-605)
chain: MMDLELPPPGLPSQQDMDLIDILWRQDIDLGVSREVFDFSQRRKEYELEKQKKLEKERQEQLQKEQEKAFFAQLQLDEETGEFLPIQPAQHIQSETSGSANYSQVAHIPKSDALYFDDCMQLLAQTFPFVDDNEVSSATFQSLVPDIPGHIESPVFIATNQAQSPETSVAQVAPVDLDGMQQDIEQVWEELLSIPELQCLNIENDKLVETTMVPSPEAKLTEVDNYHFYSSIPSMEKEVGNCSPHFLNAFEDSFSSILSTEDPNQLTVNSLNSDATVNTDFGDEFYSAFIAEPSISNSMPSPATLSHSLSELLNGPIDVSDLSLCKAFNQNHPESTAEFNDSDSGISLNTSPSVASPEHSVESSSYGDTLLGLSDSEVEELDSAPGSVKQNGPKTPVHSSGDMVQPLSPSQGQSTHVHDAQCENTPEKELPVSPGHRKTPFTKDKHSSRLEAHLTRDELRAKALHIPFPVEKIINLPVVDFNEMMSKEQFNEAQLALIRDIRRRGKNKVAAQNCRKRKLENIVELEQDLDHLRDEKEKLLKEKGENDKSLHLLKKQLSTLYLEVFSMLRDEDGKPYSPSEYSLQQTRDGNVFLVPKSKKPDVKKN
With B4 the binding [1] was “no binding” and the binding [2] was “binds”.

B5: HA‐Nrf2‐2KR (protein, UniProt Q16236 1-605)
chain: MMDLELPPPGLPSQQDMDLIDILWRQDIDLGVSREVFDFSQRRKEYELEKQKKLEKERQEQLQKEQEKAFFAQLQLDEETGEFLPIQPAQHIQSETSGSANYSQVAHIPRSDALYFDDCMQLLAQTFPFVDDNEVSSATFQSLVPDIPGHIESPVFIATNQAQSPETSVAQVAPVDLDGMQQDIEQVWEELLSIPELQCLNIENDKLVETTMVPSPEAKLTEVDNYHFYSSIPSMEKEVGNCSPHFLNAFEDSFSSILSTEDPNQLTVNSLNSDATVNTDFGDEFYSAFIAEPSISNSMPSPATLSHSLSELLNGPIDVSDLSLCKAFNQNHPESTAEFNDSDSGISLNTSPSVASPEHSVESSSYGDTLLGLSDSEVEELDSAPGSVKQNGPKTPVHSSGDMVQPLSPSQGQSTHVHDAQCENTPEKELPVSPGHRKTPFTKDKHSSRLEAHLTRDELRAKALHIPFPVEKIINLPVVDFNEMMSKEQFNEAQLALIRDIRRRGKNKVAAQNCRKRKLENIVELEQDLDHLRDEKEKLLKEKGENDKSLHLLKKQLSTLYLEVFSMLRDEDGKPYSPSEYSLQQTRDGNVFLVPKSKKPDVKKN
B5 was tested, and the binding [1] was “no binding”.
